Reference: PMC4336329 (PLoS ONE, 2015)
The whole screen tested about 310,000 compounds, of which about 2,200 (0.71%) showed an effect of 50% or more. Effects have a minus sign here. Some of the results follow.

Biological target: human ether-à-go-go-related gene (hERG) potassium channel (human, UniProt Q12809)
Assay: primary screen, population patch clamp on CHO cells stably expressing hERG

Chain of human ether-à-go-go-related gene (hERG) potassium channel (Q12809 whole entry, looked up): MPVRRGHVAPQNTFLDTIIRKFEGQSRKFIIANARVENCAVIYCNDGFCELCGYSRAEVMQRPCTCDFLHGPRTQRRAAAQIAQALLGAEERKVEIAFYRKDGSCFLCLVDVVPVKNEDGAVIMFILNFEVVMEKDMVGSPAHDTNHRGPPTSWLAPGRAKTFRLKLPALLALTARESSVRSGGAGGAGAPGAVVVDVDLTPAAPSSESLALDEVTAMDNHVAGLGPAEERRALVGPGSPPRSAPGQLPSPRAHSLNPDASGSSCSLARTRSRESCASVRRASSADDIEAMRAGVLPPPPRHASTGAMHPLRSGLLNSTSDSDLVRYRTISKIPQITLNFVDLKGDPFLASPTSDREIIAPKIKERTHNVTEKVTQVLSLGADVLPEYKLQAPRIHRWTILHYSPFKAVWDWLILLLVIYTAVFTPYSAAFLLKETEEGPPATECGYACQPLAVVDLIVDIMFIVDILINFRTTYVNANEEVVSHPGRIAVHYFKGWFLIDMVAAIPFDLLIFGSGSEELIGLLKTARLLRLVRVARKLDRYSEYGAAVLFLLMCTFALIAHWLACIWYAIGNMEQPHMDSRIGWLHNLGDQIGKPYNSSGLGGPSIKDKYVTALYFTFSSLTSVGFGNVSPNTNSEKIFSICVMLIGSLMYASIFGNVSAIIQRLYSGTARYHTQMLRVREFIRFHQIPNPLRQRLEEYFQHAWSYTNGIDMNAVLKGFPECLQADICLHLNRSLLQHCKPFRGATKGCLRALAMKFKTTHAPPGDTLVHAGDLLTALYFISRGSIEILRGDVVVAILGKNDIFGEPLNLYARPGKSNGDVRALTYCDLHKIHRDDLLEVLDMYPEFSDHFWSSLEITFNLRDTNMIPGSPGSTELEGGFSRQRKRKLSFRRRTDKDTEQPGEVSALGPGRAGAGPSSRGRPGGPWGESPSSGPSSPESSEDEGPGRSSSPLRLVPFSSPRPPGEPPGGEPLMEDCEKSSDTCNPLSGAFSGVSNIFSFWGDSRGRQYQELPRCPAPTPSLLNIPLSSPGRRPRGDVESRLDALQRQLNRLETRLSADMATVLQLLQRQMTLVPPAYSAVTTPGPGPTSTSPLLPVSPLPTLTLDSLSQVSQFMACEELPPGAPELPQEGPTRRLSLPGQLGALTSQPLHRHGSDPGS

| Structure (SMILES) | hERG current change (%, negative = inhibition) at 1uM [%] |
| --- | --- |
| Cc1csc(NC(=O)C2CCN(C(=O)CSc3nnc(C)n3Cc3ccccc3)CC2)n1 | -14.4 |
| CS(=O)(=O)Oc1ccc(Br)c2cccnc12 | 7.5 |
| C=CCn1c(SCC(=O)c2ccc(O)c(O)c2)nnc1-c1cccc(OC)c1 | 15.6 |
| CC(C)(C)Cc1nnc(NC(=O)c2ccc([N+](=O)[O-])cc2)s1 | 10.7 |
| Cc1cc(=O)[nH]c(SC(C)C(=O)Nc2cccc3ccccc23)n1 (centres unmarked) | 6.33 |
| Cc1ccc(OC(=O)c2cccc(S(=O)(=O)N3CCN(C)CC3)c2)c(Br)c1 | 4.81 |
| Cc1nc(CSc2nsc(C)c2C#N)cs1 | 13 |
| COc1ccc(CNC(=O)CSc2nnc3c(n2)[nH]c2ccccc23)cc1 | 12.2 |
| O=C(CSc1nnnn1-c1ccc2c(c1)OCCO2)c1cccc2c1OCCO2 | 7.8 |
| Cc1ccc(/C=C/C(=O)Nc2cc(C)on2)cc1 | 17 |
| CCOc1ccc(NC(=O)NCC2CCN(c3ccc(OC)cc3)C2)cc1 (centres unmarked) | 1.75 |
| Cc1cc(C)nc(N2CCN(c3nnnn3-c3ccccc3)CC2)n1 | 15.2 |
| COc1ccc(S(=O)(=O)Nc2ccc(S(=O)(=O)Nc3nccs3)cc2)cc1 | 12.7 |
| Cc1cc(C)c(C)c(S(=O)(=O)NCC(=O)Nc2sc3c(c2C(N)=O)CCCC3)c1C | 14.4 |
| Cc1nc(C)c(C(=O)O)s1 | -2.56 |
| COc1cc(NC(=O)Cc2ccccc2)c(C(=O)O)cc1OC | 12.6 |
| CCOC(=O)C1CCN(C2=NC(=O)/C(=C/c3ccccc3OC)S2)CC1 | 9.82 |
| CC1CC(C)CN(C(=O)c2cc3c(=O)n4ccccc4nc3s2)C1 (centres unmarked) | 4.44 |
| Cc1noc(C)c1COc1cccc(C(=O)NCc2ccccc2Cl)c1 | 16.8 |
| O=C(CSc1nnc(CNC(=O)c2cccs2)o1)NCc1ccc(F)cc1 | 6.8 |
| CCC(C)(C)NC(=O)CN(CC1CCCO1)C(=O)CCC(=O)Nc1nccs1 (centres unmarked) | 9.1 |
| COc1ccc2c(c1)/C(=C/c1cnc[nH]1)C(=O)N2 | 5.96 |

| Structure (SMILES) | hERG current change (%, negative = inhibition) at 1uM [%] |
| --- | --- |
| CCOC(=O)C1=CC[C@H]2c3c(c4ccc(OC)cc4n3C)C(=O)C1N2S(=O)(=O)c1ccc(C)cc1 | 3.47 |
| O=C(N/N=C/c1cc2ccccc2nc1Cl)[C@H]1C[C@@H]1c1ccccc1 | 13.5 |
| CC1CCCC(C)N1C(=O)c1cc(-c2ccc(Cl)c(Cl)c2)on1 (centres unmarked) | 10.8 |
| Cc1ccc(S(=O)(=O)NCCC(=O)Nc2ccc(C)c(Cl)c2)cc1C | 13.7 |
| Cc1nc(N2CCN(S(=O)(=O)c3ccc(Br)cc3)CC2)c2c(C)c(C)sc2n1 | 8.04 |
| CC1=C(C)CC(C(=O)NNC(=O)c2ccccc2O)C(C(=O)O)C1 (centres unmarked) | 11.4 |
| COc1cccc(CN(Cc2ccccc2F)S(=O)(=O)c2ccc(S(=O)(=O)NCc3ccccc3)cc2)c1 | 20.2 |
| Cc1nn(CC(=O)N(C)C2CCS(=O)(=O)C2)c(C)c1[N+](=O)[O-] (centres unmarked) | 19.9 |
| Br.CC1CN2C(c3ccc(Cl)cc3)=CSC2=N1 (centres unmarked) | -9.75 |
| COc1ccc(C(=O)N2CCCC(Nc3ccc(C)c(C)c3)C2)cc1 (centres unmarked) | -0.108 |
| Cc1ccc(S(=O)(=O)Nc2ccccc2/C=N/c2nc3ccccc3n2C)cc1 | -2.55 |
| COc1ccc(-c2nc(CN3CCCCC3CCc3ccccn3)c(C)o2)cc1 (centres unmarked) | -79.4 |
| COc1cccc(Oc2cnc(N)nc2-c2ccc(OC)cc2O)c1 | 4.61 |
| CC(C(=O)Nc1cc([N+](=O)[O-])ccc1Cl)N1CCN(c2ccc(O)cc2)CC1 (centres unmarked) | 12.8 |
| O=C(COc1ccccc1)NC1CCSc2ccccc21 (centres unmarked) | 8.14 |
| Cc1c(NC(=O)c2cc3ccccc3o2)c(=O)n(-c2ccccc2)n1C | -2.97 |
| CN1CCN(C(CC(=O)Nc2cccc(O)c2)C(=O)O)CC1 (centres unmarked) | 3.73 |
| COC(=O)CCCC1=CC2=CC(=O)C(C)(OC(=O)c3cccs3)C(=O)C2=CN1C1CCCC1 (centres unmarked) | 10.3 |
| COCCn1cnnc1SCC(=O)Nc1ccccc1C(=O)Nc1ccc2c(c1)OCO2 | 16.5 |
| COc1ccc(-c2noc(CCC(=O)Nc3cc(Cl)c(OC)cc3OC)n2)cc1 | 9.23 |
| CC(=O)N(CN1C(=O)c2ccc([N+](=O)[O-])cc2C1=O)c1cccc(C(=O)O)c1 | 11.1 |
| CC(=O)C1(C)N(O)C(C)(C)C(c2cccs2)=[N+]1[O-] (centres unmarked) | 12.7 |
